Measured values reported in article PMC12040169 (PLOS Biology, 2025).
Some of the results follow.

system: T1, C. trachomatis L2/434/Bu expressing GFP (CTL2-GFP); design: species or system HeLa; C. trachomatis total inclusion area by high-content imaging, normalised to DMSO; details: total inclusion area; 28.5 h, 10 µM; inhibitor
T1 construct: L2/434/Bu GFP intracellular growth in HeLa cells
Procedure, shortened: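 High-content imaging followed the bulk GFP/resorufin measurement: fixed, Hoechst-stained cells were scored for GFP inclusions and host nuclei per well. Total inclusion area and count served as growth proxies, nuclei number as the viability proxy. MIC calculation matched the bulk assay.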

**Q.** How did the “% of control remaining” value turn out when `CSc1ccc(-c2cn3ccnc3c(NCCc3ccncc3)n2)cc1` [CBK066479] was run?
**A.** 100.857

**Q.** For `COc1nc(NCCN2CCOCC2)nc(Nc2ccccc2)n1` [CBK027298], which “% of control remaining” value is on record?
**A.** 108.037

**Q.** How did the “% of control remaining” value turn out when `CN(C)CCN1CCN(c2ccc(-c3ccc(OC(F)(F)F)cc3)cn2)CC1` [CBK036796] was run?
**A.** 92.9159

**Q.** For `COC(=O)c1c(NC(=O)COc2ccccc2Cl)sc2c1CCC(c1ccccc1)C2` (stereo not shown) [CBK265456], which “% of control remaining” value is on record?
**A.** 104.481

**Q.** For `Fc1ccc(-c2nccnc2NCc2ccncc2)cc1` [CBK088964], which “% of control remaining” value is on record?
**A.** 109.913

**Q.** `COc1ccc(OC)c(C(O)CN2CCc3sccc3C2c2cccs2)c1` (stereo not shown) [CBK285532] was tested. Which “% of control remaining” value did it give?
**A.** 76.325

**Q.** Which “% of control remaining” value does the source give for `COc1ccc(CCC(=O)N2CCCc3c(cnn3C)C2)cc1` [CBK285326] here?
**A.** 87.5543

**Q.** Which “% of control remaining” value does the source give for `CC(C)CC(Nc1ncnc2c1oc1ccccc12)C(=O)O` (stereo not shown) [CBK293974] here?
**A.** 103.573

**Q.** Which “% of control remaining” value does the source give for `O=C(Nc1cccc(OC(=O)c2cccc(S(=O)(=O)N3CCOCC3)c2)c1)c1ccccc1` [CBK261365] here?
**A.** 109.547

**Q.** For `Cc1noc(C)c1C(=O)N1CCC(c2ccncc2)CC1` [CBK282334], which “% of control remaining” value is on record?
**A.** 76.5716

**Q.** How did the “% of control remaining” value turn out when `CC1(C)Cc2nc(N3CCOCC3)ncc2C(NC(=O)NC(C)(C)C)C1` (stereo not shown) [CBK306978] was run?
**A.** 82.7144

**Q.** Which “% of control remaining” value does the source give for `COc1ccc([C@@H]2CN(C)C[C@H]2NC(=O)Nc2ccc(Cl)c(Cl)c2)cc1OC` [CBK081111] here?
**A.** 6.886

**Q.** For `CC[C@@H]1CCCCN1C(=O)c1ccc(Cl)c(C)c1` [CBK084565], which “% of control remaining” value is on record?
**A.** 72.123

**Q.** With `O=C(COc1ccccc1)N1CCC(c2cc3cnccc3[nH]2)CC1` [CBK283449] as the compound, how does the “% of control remaining” value read?
**A.** 86.3688

**Q.** With `CC(C)C[C@@H]1N[C@H](C(=O)NC2CCC2)Cc2cn(Cc3nccn3C)c3cccc1c23` [CBK289422] as the compound, how does the “% of control remaining” value read?
**A.** 105.081

**Q.** How did the “% of control remaining” value turn out when `COc1ccc(S(=O)(=O)NCc2ccc3c(c2)OCO3)cc1C(=O)O` [CBK264070] was run?
**A.** 100.51

**Q.** For `COc1ccc(Cc2nnc(SCC(=O)Nc3ccc(Br)c(C)c3)n2C)cc1` [CBK265816], which “% of control remaining” value is on record?
**A.** 67.9725

**Q.** How did the “% of control remaining” value turn out when `O=C(Nc1ccccc1)O[C@@H]1CO[C@H]2[C@@H]1OC[C@@H]2Nc1nccc(-c2cccs2)n1` [CBK289513] was run?
**A.** 91.9009

**Q.** For `C/C=C/c1ccc(OCCCn2nnc3ccccc32)c(OC)c1` [CBK269271], which “% of control remaining” value is on record?
**A.** 112.626

**Q.** How did the “% of control remaining” value turn out when `CCOC(=O)c1c(NC(=O)CN2CCOCC2)sc2c1CCC2` [CBK262548] was run?
**A.** 98.385

**Q.** With `Cc1cc(N2CCCN3CCCCCC32)nc(N)n1` (stereo not shown) [CBK169746] as the compound, how does the “% of control remaining” value read?
**A.** 56.9422

**Q.** For `CCOc1nc(Nc2nc(-c3ccccc3)cs2)nc(OCC)n1` [CBK262442], which “% of control remaining” value is on record?
**A.** 103.521

**Q.** Which “% of control remaining” value does the source give for `CCOC(=O)c1c(C(C)(C)C)oc2ccc(OCC(=O)c3ccc(OC)cc3)cc12` [CBK264950] here?
**A.** 98.4352

**Q.** For `CC(C)(C)n1cc2c(n1)[C@H]1CN(C(=O)CN3CCCC3=O)C[C@H]1CC2` [CBK283401], which “% of control remaining” value is on record?
**A.** 112.675

**Q.** With `CCOc1ccc(CC(=O)N2CCC(c3ccncc3)CC2)cc1` [CBK283596] as the compound, how does the “% of control remaining” value read?
**A.** 87.0502

**Q.** Which “% of control remaining” value does the source give for `O=C(O)c1ccc(NC(=O)c2ccccc2F)c(NC(=O)c2ccccc2F)c1` [CBK275363] here?
**A.** 98.8663

**Q.** How did the “% of control remaining” value turn out when `CCc1nc2ccc(C(=O)Nc3ccc(C(N)=O)cc3)cn2c1N(CC)Cc1cccc(Br)c1` [CBK146960] was run?
**A.** 103.06

**Q.** With `O=[N+]([O-])c1ccccc1S(=O)(=O)N1CCN(S(=O)(=O)c2ccc(Cl)cc2)CC1` [CBK264311] as the compound, how does the “% of control remaining” value read?
**A.** 111.464

**Q.** Which “% of control remaining” value does the source give for `Cn1cc(C(=O)NC2CCN(C(=O)c3ccc4c(c3)CCC4)CC2)cn1` [CBK305664] here?
**A.** 43.1125

**Q.** How did the “% of control remaining” value turn out when `CCOc1cc(NC2CCN(C(=O)C(C)CC3CCCC3)CC2)ncn1` (stereo not shown) [CBK306176] was run?
**A.** 22.3513

**Q.** With `Cc1ccc(S(=O)(=O)NC2c3cccc4cccc(c34)C2Sc2nnc(N)[nH]2)cc1` (stereo not shown) [CBK265875] as the compound, how does the “% of control remaining” value read?
**A.** 104.766

**Q.** `CC(=O)NC1(c2ccccc2)CCN(Cc2ccnn2C)CC1` [CBK281805] was tested. Which “% of control remaining” value did it give?
**A.** 103.751

**Q.** Which “% of control remaining” value does the source give for `O=C(O)[C@@H]1CCN(Cc2ccccc2)C[C@H]1c1ccccc1` [CBK286840] here?
**A.** 113.644

**Q.** Which “% of control remaining” value does the source give for `COCCCn1c(C)c(C)n2c3c(=O)n(CCN4CCCCC4)c(=O)n(C)c3nc12` [CBK269762] here?
**A.** 83.4279

**Q.** `O=[N+]([O-])c1cc(-c2nc(-c3cccs3)c(-c3cccs3)[nH]2)ccc1Br` [CBK265009] was tested. Which “% of control remaining” value did it give?
**A.** 112.867

**Q.** With `COc1cccc(COc2cncc(N3CCNCC3)n2)c1OC` [CBK200003] as the compound, how does the “% of control remaining” value read?
**A.** 44.7662

**Q.** How did the “% of control remaining” value turn out when `O=C(O)c1ccc(NC(=O)c2cccc(NC(=O)c3cccc4ccccc34)c2)cc1` [CBK299823] was run?
**A.** 65.1319

**Q.** Which “% of control remaining” value does the source give for `O=c1[nH]c2ncc(-c3cccc(CO)c3)nc2n1CC1CC1` [CBK065088] here?
**A.** 86.3295

**Q.** With `Nc1ncc(-c2occc2C=O)nc1NC1CCOCC1` [CBK063789] as the compound, how does the “% of control remaining” value read?
**A.** 113.321

**Q.** How did the “% of control remaining” value turn out when `Cn1cc(N2CCC(NC(=O)c3ccc(C#N)cc3)C2=O)cn1` (stereo not shown) [CBK305182] was run?
**A.** 38.752
